In PubChem BioAssay AID1508624 (National Center for Advancing Translational Sciences (NCATS), 2021):
Out of some 48,000 compounds screened, about 120 (0.25%) were called active. Inconclusive results (about 4%) are left out. Calls come from the whole dose curve; as a rule, active = well fitted activation curve with a large enough effect; inconclusive = small, poorly fitted or top-dose-only effect, or another doubt; inactive = no such curve, though single readings can be large or run the other way. This is one part of the list.

Assay: Primary qHTS for Identification of Small Molecule Activators of Huntingtin-Antisense Promoter Activity; note: nearly all actives have a fitted effect of over 55% in size
Settings: HEK293 HTT-AS promoter firefly luciferase reporter, 24 h; series mostly up to 57.5 µM; activity change, positive = activation: at the top concentration
Method in brief: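 Firefly luciferase readout (Dual-Glo, 10 min RT) after 24 h, 37 °C compound exposure (final up to 57.5 uM) of HEK293 reporter cells cultured 24 h beforehand; PTC124 at 50 uM final as control inhibitor; activity scaled vehicle 0%, zero RLU -100%.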

Activity change, positive = activation, inactive:
CC(=O)N1CCCc2ccc(NS(=O)(=O)c3ccc(C)c(C)c3)cc21 14%
Cn1nc(C(=O)N2CCN(c3cccc(Cl)c3)CC2)c2c1-c1ccccc1S(=O)(=O)C2 -8.39%
CCc1cc2c(cc3c(=O)n(CC(=O)N4CCC(C)CC4)nc(CC)n32)s1 -14.7%
NCCCNCCSP(=O)(O)O -2.87% [at 11.5 µM, percent change from vehicle, -100% = no light]
CCCCCn1c(NCc2ccccc2OC)nc2ccccc21 -59%
CCCS(=O)(=O)c1ncc(Cl)c(C(=O)Nc2c(C(=O)c3ccccc3)oc3ccccc23)n1 -16.7%
CC(=O)c1cccc(NC(=O)CCc2c(C)nc3c(-c4ccc(F)cc4)c(C)nn3c2C)c1 -20%
Cc1ccc2c(=O)c3cccc(CC(=O)O)c3oc2c1C -33.1%
O=C(Nc1ccccc1)N1CCN(C(=O)c2nsc3ccccc23)CC1 -25.1%
CCCc1nc2sc3c(N4CCCCC4)ncnc3c2c2c1CCCC2 -6.14%
COc1ccc(OC)c(NC(=O)Cn2cc(S(=O)(=O)c3ccccc3)c(=O)c3cc(C)ccc32)c1 3.13%
Cc1ccc(CCNC(=O)CCn2c(=O)c3cccn3c3ccc(F)cc32)cc1 -23.7%
Cc1cc(=O)n2nc(N3CCC(C(=O)Nc4ccc(C(C)C)cc4)CC3)sc2n1 -21.5%
COc1c(Cl)cc(Cl)cc1/C=C(\C#N)c1nc2ccccc2[nH]1 -6.41%
CCN(CCCNC(=O)c1nn(-c2ccc(C)cc2)c(=O)c2c1c1ccccc1n2C)c1ccccc1 10.7%
COc1ccc(C(=O)Nc2ccc(-c3cc4ccccc4oc3=O)c(C)c2)cc1Br -28.9%
Cc1ccc(C)c(N2CCN(C(=O)CCCn3ncn4c(cc5occc54)c3=O)CC2)c1 -32.7%
COc1cccc(CNC(=O)CCS(=O)(=O)c2cc3c(cc2C)NC(=O)CO3)c1 -5.69%
CCOc1ccc(CNC(=O)CCn2nc(C)c3c(C)n(-c4ccccc4)nc3c2=O)cc1 -19.2%
CCc1ccc(-n2c(=O)c3c(C)c(C(=O)N(C)C)sc3n(Cc3cccc(C)c3)c2=O)cc1 2.54%
CN(C)c1ccc(CNC(=O)CCCN2C(=O)CCn3nc(-c4cccn4C)cc32)cc1 7.94%
Cc1ccc(-n2c(=O)c3c4c(sc3n(Cc3ccccc3F)c2=O)CCC4)cc1C -7.97%
Cc1nc(-c2ccc(Cl)cc2)sc1CCNC(=O)c1ccco1 27.2%
Cc1ccc(O)c(-c2ccnc3cc(-c4ccc(Cl)cc4)nn23)c1 -15.3%
COc1cc(-c2nc3sccn3c2Nc2cccc(C)c2)ccc1O -17.8%
Cc1coc2cc3oc(=O)c(CC(=O)NCc4ccc(F)cc4)c(C)c3cc12 -14.2%
Oc1ccccc1-c1nc(/C=C/c2ccccc2Cl)no1 -36.3%
Cc1ccc(Cn2c(=O)n(Cc3nc(-c4ccccc4)no3)c(=O)c3cc4c(cc32)OCO4)cc1 -18.1%
COc1ccccc1OCCCn1c(C2CC(=O)N(c3ccccc3Cl)C2)nc2ccccc21 (stereo unspecified) -19.1%
COc1ccc(C(=O)Nc2ccc3nc(SCc4ccc(C)cc4)sc3c2)cc1 -19.8%
CCN(CCCNC(=O)c1cc2c(=O)[nH]c3ccccc3c2s1)c1ccccc1 -20.5%
CCC1CCCCN1S(=O)(=O)c1ccc(NC(=O)c2cc(=O)c3ccccc3o2)cc1 (stereo unspecified) -17.8%
O=S(=O)(c1ccc(-n2cnnn2)cc1)N1CCN(c2ccccc2F)CC1 -21.9%
O=C(Nc1nc(-c2ccc(Br)cc2)ns1)c1ccc(F)cc1 -18.2%
CCCCOc1ccc(C2c3c(-c4ccccc4O)n[nH]c3C(=O)N2Cc2ccncc2)cc1OC (stereo unspecified) -30.8%
CC(=O)c1cccc(NC(=O)Cn2c(SCC(=O)Nc3ccc(F)cc3)nc3ccccc32)c1 -22.4%
CCC(=C(c1ccc(O)cc1)c1ccc(OCCNC)cc1)c1ccccc1 -28.1%
Cc1c2cnn(CC(=O)NCc3ccccc3)c(=O)c2c(C)n1Cc1cccc(Cl)c1 -34.9%
COc1ccc(-c2c(C#N)c(SCC(=O)Nc3ccccc3C)nc(C)c2C(=O)Nc2ccccc2)cc1OC -24.3%
COCCCNC(=O)CSc1nc(-c2cccc(F)c2)[nH]c1-c1ccccc1 -24%
O=C(CN1CCN(Cc2ccccc2Cl)C1=O)NCc1ccccc1Cl -14.9%
N#C/C(=C\c1ccc(Cl)cc1)C(=O)NCC1CCCO1 (stereo unspecified) -5.2%
Cn1cc(S(=O)(=O)c2ccccc2)c(=O)c2cc(F)c(N3CCOCC3)cc21 -4.76%
COc1ccc(CCN2C(=O)N(c3ccc(F)cc3)C(=O)C2CC(=O)Nc2ccccc2)cc1 (stereo unspecified) 0%
O=C(CCn1c(=O)c2cccn2c2ccc(F)cc21)NCc1ccccc1F -5.35%
Cc1ccc(NC(=O)CSc2nc(-c3ccc(F)cc3)cc(C(F)(F)F)c2C#N)cc1 -4.31%
Cc1cccc(NC(=O)Cn2c(=O)n(Cc3ccc(C(=O)NCc4ccc5c(c4)OCO5)cc3)c(=O)c3ccccc32)c1 -12.6%
CCNC(=O)CC1C(=O)N(c2ccccc2)C(=O)N1Cc1ccc(F)cc1 (stereo unspecified) 12.6%
COc1ccc(NC(=O)Cn2c(=O)oc3cc(S(=O)(=O)NC(C)C)ccc32)cc1OC -8.95%
CCOc1ccc(C(=O)c2cn(CC(=O)Nc3cc(OC)cc(OC)c3)c3ccc(F)cc3c2=O)cc1 -48.4%
Cc1ccccc1Cn1c(CCCNC(=O)C2CCCCC2)nc2ccccc21 -26%
COc1ccc(S(=O)(=O)N(Cc2nc(-c3cccc(C)c3)no2)C2CCCCC2)cc1 -19.8%
Cc1ccccc1Cn1c(SCc2ccc(C(=O)NCc3cccs3)cc2)nc2ccncc21 -7.76%
Cc1cccc(OCc2nnc(SCC(=O)Nc3ccc(C)cc3C)o2)c1 -17.5%
COc1ccccc1N1CCN(S(=O)(=O)c2ccc3c(c2)oc(=O)n3C)CC1 -13.4%
CCCSCCCNC(=O)C1CCN(C(=O)c2cc3sccc3n2C)CC1 -30.5%
Cc1nnc(N2CCC(C(=O)NC(C)C)CC2)c2nn(-c3ccc(Cl)cc3)c(C)c12 -5.35%
Cc1ccc2nc(Cl)c3cc(C(=O)N(C)C4CCCCC4)sc3c2c1 -2.82%
CCOc1ccc(CCNC(=O)C2CCN(C(=O)N3CC(CC)Oc4ccc(C)cc43)CC2)cc1 (stereo unspecified) -47%
CCn1c(CNC(=O)c2ccc(OC)cc2)nnc1SCC(=O)Nc1cccc(C)c1C 3.15%
Cc1ccc(NC(=O)CSc2nc3ccc(NC(=O)c4cccs4)cc3s2)c(C)c1 -29%
